Some of the results follow. The list includes weakly bound sequences.

This experiment deals with T1, MBP-FoxP3dN (UniProt Q99JB6).
T1 sequence: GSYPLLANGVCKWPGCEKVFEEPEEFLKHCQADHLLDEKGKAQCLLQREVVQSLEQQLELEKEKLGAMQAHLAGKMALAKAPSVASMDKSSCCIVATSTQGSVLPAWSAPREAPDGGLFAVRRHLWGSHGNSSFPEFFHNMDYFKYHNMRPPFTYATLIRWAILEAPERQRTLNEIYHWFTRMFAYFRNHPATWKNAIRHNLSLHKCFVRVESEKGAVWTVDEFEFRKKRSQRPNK
Briefly: PD-seq (MBP pull-down with sequencing). The conditions noted are these: 20 mM Tris-HCl pH 7.5, 100 mM NaCl, 1.5 mM MgCl2, 0.4 uM protein, 0.1 uM dsDNA library, 30 min, room temperature, amylose pull-down; high values mean tight binding; double strand, one strand shown.
On to “GATGATTGTTCTCCCAGCTGATGAATTTGACGCTTCGAGTAAACAAATTTTCCTAATCTTTCTGTTCAAGCGCCATCTAC”, for which the binding signal (RPM ratio (pull-down/input)) stood at 0.832. Next, “GATGATTGTTCTCCCAGCTGATGAATTTCAACGATCGAGTAAACAAATTTTCCTAATCTTTCTGTTCAAGCGCCATCTAC”: 0.284; “GATGATTGTTCTCCCAGCTGATGAATTCAACTCTTCGAGTAAACAAATTTTCCTAATCTTTCTGTTCAAGCGCCATCTAC”: 0.347. Next, “GATGATTGTTCTCCCAGCTGATGAATTTGCCCGTTCGAGTAAACAAATTTTCCTAATCTTTCTGTTCAAGCGCCATCTAC”: 0.401; “GATGATTGTTCTCCCAGCTGATGAATTGCTCCCGTCGAGTAAACAAATTTTCCTAATCTTTCTGTTCAAGCGCCATCTAC”: 0.384. With “GATGATTGTTCTCCCAGCTGATGAATTGATCTGGTCGAGTAAACAAATTTTCCTAATCTTTCTGTTCAAGCGCCATCTAC”, the binding signal (RPM ratio (pull-down/input)) was 0.213. In the case of “GATGATTGTTCTCCCAGCTGATGAATTCCGAACATCGAGTAAACAAATTTTCCTAATCTTTCTGTTCAAGCGCCATCTAC” it was 0.379; in that of “GATGATTGTTCTCCCAGCTGATGAATTATTTTTATCGAGTAAACAAATTTTCCTAATCTTTCTGTTCAAGCGCCATCTAC”, 0.78; in that of “GATGATTGTTCTCCCAGCTGATGAATTAAATCTGTCGAGTAAACAAATTTTCCTAATCTTTCTGTTCAAGCGCCATCTAC”, 0.199. In the case of “GATGATTGTTCTCCCAGCTGATGAATTCTCCTGATCGAGTAAACAAATTTTCCTAATCTTTCTGTTCAAGCGCCATCTAC”, the binding signal (RPM ratio (pull-down/input)) worked out at 0.173. As for “GATGATTGTTCTCCCAGCTGATGAATTCAAAGACTCGAGTAAACAAATTTTCCTAATCTTTCTGTTCAAGCGCCATCTAC”, the binding signal (RPM ratio (pull-down/input)) came out at 0.199. In the case of “GATGATTGTTCTCCCAGCTGATGAATTTCCAAGATCGAGTAAACAAATTTTCCTAATCTTTCTGTTCAAGCGCCATCTAC” it was 0.153; in that of “GATGATTGTTCTCCCAGCTGATGAATTCGCATTGTCGAGTAAACAAATTTTCCTAATCTTTCTGTTCAAGCGCCATCTAC”, 3.91. Next, “GATGATTGTTCTCCCAGCTGATGAATTATGATACTCGAGTAAACAAATTTTCCTAATCTTTCTGTTCAAGCGCCATCTAC”: 1.28. Next, “GATGATTGTTCTCCCAGCTGATGAATTGTATGCTTCGAGTAAACAAATTTTCCTAATCTTTCTGTTCAAGCGCCATCTAC”: 2.53; “GATGATTGTTCTCCCAGCTGATGAATTTGAGCCATCGAGTAAACAAATTTTCCTAATCTTTCTGTTCAAGCGCCATCTAC”: 1.25; “GATGATTGTTCTCCCAGCTGATGAATTTTCGGATTCGAGTAAACAAATTTTCCTAATCTTTCTGTTCAAGCGCCATCTAC”: 0.274.

With “GATGATTGTTCTCCCAGCTGATGAATTGATGGAGTCGAGTAAACAAATTTTCCTAATCTTTCTGTTCAAGCGCCATCTAC”, the binding signal (RPM ratio (pull-down/input)) is 0.352.

As to “GATGATTGTTCTCCCAGCTGATGAATTGGGATACTCGAGTAAACAAATTTTCCTAATCTTTCTGTTCAAGCGCCATCTAC”, the binding signal (RPM ratio (pull-down/input)) turned out to be 0.733. In the case of “GATGATTGTTCTCCCAGCTGATGAATTGCGAATTTCGAGTAAACAAATTTTCCTAATCTTTCTGTTCAAGCGCCATCTAC” it was 2.18. In the case of “GATGATTGTTCTCCCAGCTGATGAATTTACGCAGTCGAGTAAACAAATTTTCCTAATCTTTCTGTTCAAGCGCCATCTAC” it was 0.602; in that of “GATGATTGTTCTCCCAGCTGATGAATTGGGACCGTCGAGTAAACAAATTTTCCTAATCTTTCTGTTCAAGCGCCATCTAC”, 0.37.

In the case of “GATGATTGTTCTCCCAGCTGATGAATTGTTTAAATCGAGTAAACAAATTTTCCTAATCTTTCTGTTCAAGCGCCATCTAC”, the binding signal (RPM ratio (pull-down/input)) came to 0.701. Next, “GATGATTGTTCTCCCAGCTGATGAATTGACACGTTCGAGTAAACAAATTTTCCTAATCTTTCTGTTCAAGCGCCATCTAC”: 0.479. In the case of “GATGATTGTTCTCCCAGCTGATGAATTCTGATCTTCGAGTAAACAAATTTTCCTAATCTTTCTGTTCAAGCGCCATCTAC” it was 0.364; in that of “GATGATTGTTCTCCCAGCTGATGAATTTCGCGGTTCGAGTAAACAAATTTTCCTAATCTTTCTGTTCAAGCGCCATCTAC”, 0.598; in that of “GATGATTGTTCTCCCAGCTGATGAATTAGACATGTCGAGTAAACAAATTTTCCTAATCTTTCTGTTCAAGCGCCATCTAC”, 0.581. “GATGATTGTTCTCCCAGCTGATGAATTCATGTGTTCGAGTAAACAAATTTTCCTAATCTTTCTGTTCAAGCGCCATCTAC”: the binding signal (RPM ratio (pull-down/input)) amounted to 1.39. Regarding “GATGATTGTTCTCCCAGCTGATGAATTAACAAAGTCGAGTAAACAAATTTTCCTAATCTTTCTGTTCAAGCGCCATCTAC”, the binding signal (RPM ratio (pull-down/input)) turned out to be 0.297. Next, “GATGATTGTTCTCCCAGCTGATGAATTCCTCGGGTCGAGTAAACAAATTTTCCTAATCTTTCTGTTCAAGCGCCATCTAC”: 0.175. “GATGATTGTTCTCCCAGCTGATGAATTTAAGAAGTCGAGTAAACAAATTTTCCTAATCTTTCTGTTCAAGCGCCATCTAC”: the binding signal (RPM ratio (pull-down/input)) is 0.198.

In the case of “GATGATTGTTCTCCCAGCTGATGAATTAATTTCATCGAGTAAACAAATTTTCCTAATCTTTCTGTTCAAGCGCCATCTAC”, the binding signal (RPM ratio (pull-down/input)) was found to be 0.499.

For the sequence “GATGATTGTTCTCCCAGCTGATGAATTGGGGGGCTCGAGTAAACAAATTTTCCTAATCTTTCTGTTCAAGCGCCATCTAC”, the binding signal (RPM ratio (pull-down/input)) is 0.477. In the case of “GATGATTGTTCTCCCAGCTGATGAATTCGCTTTCTCGAGTAAACAAATTTTCCTAATCTTTCTGTTCAAGCGCCATCTAC” it was 2.03; in that of “GATGATTGTTCTCCCAGCTGATGAATTCTGTTTCTCGAGTAAACAAATTTTCCTAATCTTTCTGTTCAAGCGCCATCTAC”, 3; in that of “GATGATTGTTCTCCCAGCTGATGAATTAAGGAGGTCGAGTAAACAAATTTTCCTAATCTTTCTGTTCAAGCGCCATCTAC”, 0.2. On to “GATGATTGTTCTCCCAGCTGATGAATTAGCTTGTTCGAGTAAACAAATTTTCCTAATCTTTCTGTTCAAGCGCCATCTAC”, for which the binding signal (RPM ratio (pull-down/input)) was 3.92. Take “GATGATTGTTCTCCCAGCTGATGAATTTGAGCTGTCGAGTAAACAAATTTTCCTAATCTTTCTGTTCAAGCGCCATCTAC”: the binding signal (RPM ratio (pull-down/input)) was found to be 0.387. Next, “GATGATTGTTCTCCCAGCTGATGAATTGCCGTGCTCGAGTAAACAAATTTTCCTAATCTTTCTGTTCAAGCGCCATCTAC”: 0.634. Next, “GATGATTGTTCTCCCAGCTGATGAATTCGGTGGCTCGAGTAAACAAATTTTCCTAATCTTTCTGTTCAAGCGCCATCTAC”: 0.613; “GATGATTGTTCTCCCAGCTGATGAATTACCAGCTTCGAGTAAACAAATTTTCCTAATCTTTCTGTTCAAGCGCCATCTAC”: 0.3; “GATGATTGTTCTCCCAGCTGATGAATTGCTGGTATCGAGTAAACAAATTTTCCTAATCTTTCTGTTCAAGCGCCATCTAC”: 0.915. Next, “GATGATTGTTCTCCCAGCTGATGAATTTCGATTTTCGAGTAAACAAATTTTCCTAATCTTTCTGTTCAAGCGCCATCTAC”: 1.11. Turning to “GATGATTGTTCTCCCAGCTGATGAATTGTCTGCCTCGAGTAAACAAATTTTCCTAATCTTTCTGTTCAAGCGCCATCTAC”, the binding signal (RPM ratio (pull-down/input)) stood at 0.506.

Take “GATGATTGTTCTCCCAGCTGATGAATTTGTCGTGTCGAGTAAACAAATTTTCCTAATCTTTCTGTTCAAGCGCCATCTAC”: the binding signal (RPM ratio (pull-down/input)) is 5.6.

For the sequence “GATGATTGTTCTCCCAGCTGATGAATTTCAGGTCTCGAGTAAACAAATTTTCCTAATCTTTCTGTTCAAGCGCCATCTAC”, the binding signal (RPM ratio (pull-down/input)) was determined as 0.426. In the case of “GATGATTGTTCTCCCAGCTGATGAATTAATGATGTCGAGTAAACAAATTTTCCTAATCTTTCTGTTCAAGCGCCATCTAC” it was 1.06; in that of “GATGATTGTTCTCCCAGCTGATGAATTCCTCTCGTCGAGTAAACAAATTTTCCTAATCTTTCTGTTCAAGCGCCATCTAC”, 0.225. Take “GATGATTGTTCTCCCAGCTGATGAATTCAAGGAGTCGAGTAAACAAATTTTCCTAATCTTTCTGTTCAAGCGCCATCTAC”: the binding signal (RPM ratio (pull-down/input)) came to 0.19. Take “GATGATTGTTCTCCCAGCTGATGAATTCCGCTAATCGAGTAAACAAATTTTCCTAATCTTTCTGTTCAAGCGCCATCTAC”: the binding signal (RPM ratio (pull-down/input)) worked out at 0.316. Next, “GATGATTGTTCTCCCAGCTGATGAATTACGACTTTCGAGTAAACAAATTTTCCTAATCTTTCTGTTCAAGCGCCATCTAC”: 1.33; “GATGATTGTTCTCCCAGCTGATGAATTAACACTTTCGAGTAAACAAATTTTCCTAATCTTTCTGTTCAAGCGCCATCTAC”: 0.552; “GATGATTGTTCTCCCAGCTGATGAATTGGTAGGCTCGAGTAAACAAATTTTCCTAATCTTTCTGTTCAAGCGCCATCTAC”: 0.509.

As for “GATGATTGTTCTCCCAGCTGATGAATTGTAGAAGTCGAGTAAACAAATTTTCCTAATCTTTCTGTTCAAGCGCCATCTAC”, the binding signal (RPM ratio (pull-down/input)) turned out to be 0.237. As for “GATGATTGTTCTCCCAGCTGATGAATTTTTGTGTTCGAGTAAACAAATTTTCCTAATCTTTCTGTTCAAGCGCCATCTAC”, the binding signal (RPM ratio (pull-down/input)) came to 1.04.

“GATGATTGTTCTCCCAGCTGATGAATTCGGGTCCTCGAGTAAACAAATTTTCCTAATCTTTCTGTTCAAGCGCCATCTAC”: the binding signal (RPM ratio (pull-down/input)) was found to be 0.552. Next, “GATGATTGTTCTCCCAGCTGATGAATTAAGTCCCTCGAGTAAACAAATTTTCCTAATCTTTCTGTTCAAGCGCCATCTAC”: 0.431; “GATGATTGTTCTCCCAGCTGATGAATTCCGGAAATCGAGTAAACAAATTTTCCTAATCTTTCTGTTCAAGCGCCATCTAC”: 0.237.

Regarding “GATGATTGTTCTCCCAGCTGATGAATTGTAAGCTTCGAGTAAACAAATTTTCCTAATCTTTCTGTTCAAGCGCCATCTAC”, the binding signal (RPM ratio (pull-down/input)) turned out to be 0.684. For “GATGATTGTTCTCCCAGCTGATGAATTGGGTTTTTCGAGTAAACAAATTTTCCTAATCTTTCTGTTCAAGCGCCATCTAC”, the binding signal (RPM ratio (pull-down/input)) came to 1.13. Consider “GATGATTGTTCTCCCAGCTGATGAATTAATCTTATCGAGTAAACAAATTTTCCTAATCTTTCTGTTCAAGCGCCATCTAC”, for which the binding signal (RPM ratio (pull-down/input)) amounted to 0.343. Regarding “GATGATTGTTCTCCCAGCTGATGAATTACCTCACTCGAGTAAACAAATTTTCCTAATCTTTCTGTTCAAGCGCCATCTAC”, the binding signal (RPM ratio (pull-down/input)) is 0.335.

In the case of “GATGATTGTTCTCCCAGCTGATGAATTAGGCCATTCGAGTAAACAAATTTTCCTAATCTTTCTGTTCAAGCGCCATCTAC”, the binding signal (RPM ratio (pull-down/input)) stood at 3.58.

The values are drawn from PMC12820563.
